# Results reported in the supplement of paper PMC8728848.
# The list shows a part of the results.
# Assays:
# Experiment in all cases: glycan array binding signal (z-score within array); higher = stronger binding
# Settings in all cases: glycan notation: IUPAC condensed, linker removed
# [1] = target: Gal(b1-3)[Fuc(a1-4)]GlcNAc(b1-6)GalNAc
# Summary of the method: (§1)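 Arrays were curated from the Consortium for Functional Glycomics database, 3228 in total, and kept only where the protein sequence was available. Binding is expressed as a within-array Z-score. This score was averaged across arrays of the same protein sequence at different concentrations or buffers and across linkers, and negative values can be read as non-binding.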
# [2] = target: Gal(b1-3)[GlcNAc(b1-6)]GalNAc
# Summary of the method: as §1
# [3] = target: Gal(b1-3)[Neu5Ac(a2-6)]GalNAc
# Summary of the method: as §1
# [4] = target: Gal(b1-3)[Neu5Ac(a2-6)]GlcNAc(b1-4)Gal(b1-4)Glc
# Summary of the method: as §1
# [5] = target: Gal(b1-3)[Neu5Ac(b2-6)]GalNAc
# Summary of the method: as §1
# Gal(b1-4)Gal = target: Gal(b1-4)Gal
# Summary of the method: as §1
# [6] = target: Gal(b1-4)GalNAc(a1-3)[Fuc(a1-2)]Gal(b1-4)GlcNAc
# Summary of the method: as §1
# [7] = target: Gal(b1-4)GalNAc(b1-3)[Fuc(a1-2)]Gal(b1-4)GlcNAc
# Summary of the method: as §1
# Gal(b1-4)Glc = target: Gal(b1-4)Glc
# Summary of the method: as §1
# Gal(b1-4)Glc6S = target: Gal(b1-4)Glc6S
# Summary of the method: as §1
# Gal(b1-4)GlcNAc = target: Gal(b1-4)GlcNAc
# Summary of the method: as §1
# [8] = target: Gal(b1-4)GlcNAc(a1-6)Gal(b1-4)GlcNAc
# Summary of the method: as §1
# Gal(b1-4)GlcNAc(b1-2)Man = target: Gal(b1-4)GlcNAc(b1-2)Man
# Summary of the method: as §1
# [9] = target: Gal(b1-4)GlcNAc(b1-2)Man(a1-3)Man(b1-4)GlcNAc(b1-4)GlcNAc
# Summary of the method: as §1
# [10] = target: Gal(b1-4)GlcNAc(b1-2)Man(a1-3)[Gal(b1-4)GlcNAc(b1-2)Man(a1-6)]Man(b1-4)GlcNAc(b1-4)GlcNAc
# Summary of the method: as §1
# [11] = target: Gal(b1-4)GlcNAc(b1-2)Man(a1-3)[Gal(b1-4)GlcNAc(b1-2)Man(a1-6)]Man(b1-4)GlcNAc(b1-4)[Fuc(a1-6)]GlcNAc
# Summary of the method: as §1
# [12] = target: Gal(b1-4)GlcNAc(b1-2)Man(a1-3)[Gal(b1-4)GlcNAc(b1-2)Man(a1-6)][Gal(b1-4)GlcNAc(b1-4)]Man(b1-4)GlcNAc(b1-4)[Fuc(a1-6)]GlcNAc
# Summary of the method: as §1
# [13] = target: Gal(b1-4)GlcNAc(b1-2)Man(a1-3)[Gal(b1-4)GlcNAc(b1-2)Man(a1-6)][GlcNAc(b1-4)]Man(b1-4)GlcNAc(b1-4)[Fuc(a1-6)]GlcNAc
# Summary of the method: as §1
# [14] = target: Gal(b1-4)GlcNAc(b1-2)Man(a1-3)[GlcNAc(b1-2)Man(a1-6)]Man(b1-4)GlcNAc(b1-4)GlcNAc
# Summary of the method: as §1
# [15] = target: Gal(b1-4)GlcNAc(b1-2)Man(a1-3)[GlcNAc(b1-4)][Gal(b1-4)GlcNAc(b1-2)Man(a1-6)]Man(b1-4)GlcNAc(b1-4)GlcNAc
# Summary of the method: as §1
# [16] = target: Gal(b1-4)GlcNAc(b1-2)Man(a1-3)[Man(a1-6)]Man(b1-4)GlcNAc(b1-4)GlcNAc
# Summary of the method: as §1
# [17] = target: Gal(b1-4)GlcNAc(b1-2)Man(a1-6)Man(b1-4)GlcNAc(b1-4)GlcNAc
# Summary of the method: as §1
# [18] = target: Gal(b1-4)GlcNAc(b1-2)Man(a1-6)[GlcNAc(b1-2)Man(a1-3)]Man(b1-4)GlcNAc(b1-4)GlcNAc
# Summary of the method: as §1
# [19] = target: Gal(b1-4)GlcNAc(b1-2)Man(a1-6)[Man(a1-3)]Man(b1-4)GlcNAc(b1-4)GlcNAc
# Summary of the method: as §1
# [20] = target: Gal(b1-4)GlcNAc(b1-2)[Gal(b1-4)GlcNAc(b1-4)]Man(a1-3)[Gal(b1-4)GlcNAc(b1-2)Man(a1-6)]Man(b1-4)GlcNAc(b1-4)GlcNAc
# Summary of the method: as §1
# [21] = target: Gal(b1-4)GlcNAc(b1-2)[Gal(b1-4)GlcNAc(b1-4)]Man(a1-3)[Gal(b1-4)GlcNAc(b1-2)[Gal(b1-4)GlcNAc(b1-6)]Man(a1-6)]Man(b1-4)GlcNAc(b1-4)GlcNAc
# Summary of the method: as §1
# [22] = target: Gal(b1-4)GlcNAc(b1-2)[Gal(b1-4)GlcNAc(b1-4)]Man(a1-3)[GlcNAc(b1-4)][Gal(b1-4)GlcNAc(b1-2)Man(a1-6)]Man(b1-4)GlcNAc(b1-4)GlcNAc
# Summary of the method: as §1
# [23] = target: Gal(b1-4)GlcNAc(b1-2)[Gal(b1-4)GlcNAc(b1-4)]Man(a1-3)[GlcNAc(b1-4)][Gal(b1-4)GlcNAc(b1-2)[Gal(b1-4)GlcNAc(b1-6)]Man(a1-6)]Man(b1-4)GlcNAc(b1-4)GlcNAc
# Summary of the method: as §1
# [24] = target: Gal(b1-4)GlcNAc(b1-2)[Gal(b1-4)GlcNAc(b1-6)]Man(a1-6)[Gal(b1-4)GlcNAc(b1-2)Man(a1-3)]Man(b1-4)GlcNAc(b1-4)GlcNAc
# Summary of the method: as §1
# [25] = target: Gal(b1-4)GlcNAc(b1-2)[Gal(b1-4)GlcNAc(b1-6)]Man(a1-6)[Gal(b1-4)GlcNAc(b1-2)Man(a1-3)]Man(b1-4)GlcNAc(b1-4)[Fuc(a1-6)]GlcNAc
# Summary of the method: as §1
# [26] = target: Gal(b1-4)GlcNAc(b1-2)[Gal(b1-4)GlcNAc(b1-6)]Man(a1-6)[GlcNAc(b1-4)][Gal(b1-4)GlcNAc(b1-2)Man(a1-3)]Man(b1-4)GlcNAc(b1-4)GlcNAc
# Summary of the method: as §1
# [27] = target: Gal(b1-4)GlcNAc(b1-2)[Gal(b1-4)GlcNAc(b1-6)]Man(a1-6)[GlcNAc(b1-4)][Gal(b1-4)GlcNAc(b1-2)[Gal(b1-4)GlcNAc(b1-4)]Man(a1-3)]Man(b1-4)GlcNAc(b1-4)[Fuc(a1-6)]GlcNAc
# Summary of the method: as §1
# [28] = target: Gal(b1-4)GlcNAc(b1-3)Gal(b1-3)GalNAc
# Summary of the method: as §1
# [29] = target: Gal(b1-4)GlcNAc(b1-3)Gal(b1-3)GlcNAc
# Summary of the method: as §1
# [30] = target: Gal(b1-4)GlcNAc(b1-3)Gal(b1-4)Glc
# Summary of the method: as §1
# [31] = target: Gal(b1-4)GlcNAc(b1-3)Gal(b1-4)GlcNAc
# Summary of the method: as §1
# [32] = target: Gal(b1-4)GlcNAc(b1-3)Gal(b1-4)GlcNAc(b1-2)Man(a1-3)[Gal(b1-4)GlcNAc(b1-3)Gal(b1-4)GlcNAc(b1-2)Man(a1-6)]Man(b1-4)GlcNAc(b1-4)GlcNAc
# Summary of the method: as §1
# [33] = target: Gal(b1-4)GlcNAc(b1-3)Gal(b1-4)GlcNAc(b1-2)Man(a1-3)[Gal(b1-4)GlcNAc(b1-3)Gal(b1-4)GlcNAc(b1-2)Man(a1-6)]Man(b1-4)GlcNAc(b1-4)[Fuc(a1-6)]GlcNAc
# Summary of the method: as §1
binder,measurement,setting,value
PX9961H-bth-557-24-557 (Bacteroides thetaiotaomicron) (protein) EETRTEVEKKNYMNNAEEAKDVLLGVYRTNTLDAMYGYYLSILFNLGTDISQVEGSGNENFRIIPTNSFPTTQSEVQQTWAALYTGIYRANDFLERISNKIGSYTTTDKKLATLYIAEARALRGMFYFELVRRFGNVVLMTSTQMSNQNPATYVQSAPEKVYEYIEDDLLYACDILPYATDDQYRESNDYRFSKGAALGLLTKVYATWAGYPVKDESKWEAAAKTARILVESGKHGLLKDYEQLWKNTCNGTWDPTESLIEISFYSPTVSGNSDPVGRIGKWNGVKTTAIAGVRGSCAANVKVVHTFVLDWREDVSDIRRDLSIANYQYTDTKKSLWVAGASDTDESAAEKDADPTKAQKNKQNYTPAKWDIQKYVTTNSFINNDKSNVNWYFLRYADVLLLYAEALNEWKHGPDAEAYNAINAVRRRGYGNPSNTSACDLPQGLDETSFREAVRKERSYELSFEGHRRQDLIRWGIYYKTVQATAKELGYWWEGTGSPNYSVATYTEEGKHELFPIPQRDMDLCIQFNQNPKW,glycan array binding signal (z-score),[1],1.26
same,glycan array binding signal (z-score),[2],-0.03
same,glycan array binding signal (z-score),[3],-0.307
same,glycan array binding signal (z-score),[4],-0.021
same,glycan array binding signal (z-score),[5],-0.419
same,glycan array binding signal (z-score),Gal(b1-4)Gal,1.85
same,glycan array binding signal (z-score),[6],-0.549
same,glycan array binding signal (z-score),[7],-0.44
same,glycan array binding signal (z-score),Gal(b1-4)Glc,-0.321
same,glycan array binding signal (z-score),Gal(b1-4)Glc6S,-0.027
same,glycan array binding signal (z-score),Gal(b1-4)GlcNAc,-0.345
same,glycan array binding signal (z-score),[8],0.191
same,glycan array binding signal (z-score),Gal(b1-4)GlcNAc(b1-2)Man,-0.104
same,glycan array binding signal (z-score),[9],10.2
same,glycan array binding signal (z-score),[10],-0.223
same,glycan array binding signal (z-score),[11],4.19
same,glycan array binding signal (z-score),[12],-0.558
same,glycan array binding signal (z-score),[13],-0.405
same,glycan array binding signal (z-score),[14],0.218
same,glycan array binding signal (z-score),[15],-0.44
same,glycan array binding signal (z-score),[16],-0.279
same,glycan array binding signal (z-score),[17],-0.534
same,glycan array binding signal (z-score),[18],-0.399
same,glycan array binding signal (z-score),[19],-0.323
same,glycan array binding signal (z-score),[20],-0.114
same,glycan array binding signal (z-score),[21],1.53
same,glycan array binding signal (z-score),[22],0.18
same,glycan array binding signal (z-score),[23],2.36
same,glycan array binding signal (z-score),[24],0.971
same,glycan array binding signal (z-score),[25],-0.396
same,glycan array binding signal (z-score),[26],-0.13
same,glycan array binding signal (z-score),[27],-0.135
same,glycan array binding signal (z-score),[28],0.039
same,glycan array binding signal (z-score),[29],-0.058
same,glycan array binding signal (z-score),[30],0.203
same,glycan array binding signal (z-score),[31],-0.319
same,glycan array binding signal (z-score),[32],3.35
same,glycan array binding signal (z-score),[33],0.583
